Data: the supplement of paper PMC4166925
± gives the standard deviation of the averaged measurements. Over roughly 33,000 sequences, “E-score (dimensionless, -0.5 to 0.5)” has its median near -0.049; the highest 2% begin near 0.37. The list shows a part of the results.

Each sequence was assayed on T1, PmTbr T-box DNA-binding domain (GST fusion) (assay: PBM E-score of 8-mer (E-score (dimensionless, -0.5 to 0.5)); Tbr is Tbrain of the sea star Patiria miniata (Pm) or the sea urchin Strongylocentrotus purpuratus (Sp); higher = stronger binding preference; most listed sequences are background and not binding sites). Conditions: the construct has about 5 more residues each side.
T1 sequence: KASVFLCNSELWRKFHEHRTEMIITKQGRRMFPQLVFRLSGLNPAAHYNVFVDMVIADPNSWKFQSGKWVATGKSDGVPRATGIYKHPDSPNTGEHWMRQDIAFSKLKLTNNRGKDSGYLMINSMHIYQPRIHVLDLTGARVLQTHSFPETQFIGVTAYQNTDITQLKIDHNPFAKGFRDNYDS
In short: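 Primer extension turned Universal Agilent oligonucleotide arrays double-stranded. They were incubated with 200 nM protein in PBS (pH 7.5); the protein was a GST-fused Tbr T-box DNA-binding domain expressed in BL21 E. coli at 20 °C and purified on glutathione. Every ungapped 8-mer was scored from the scanned, quantified probe intensities, and the Universal PBM Analysis Suite gave each an enrichment E-score averaged over duplicate arrays.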

Sequence	PBM E-score of 8-mer
GAGCTGGA	-0.0185 ± 0.037
GCCAACAC	0.354 ± 0.0042
GTGCAGTA	-0.113 ± 0.051
CAATCTTC	0.0211 ± 0.036
AACGACCG	-0.118 ± 0.043
AGATAGCG	0.151 ± 0.059
AGTAAATA	-0.177 ± 0.015
ATCTCTGC	-0.109 ± 0.0094
CGACGCTC	0.0138 ± 0.043
GTTTGCAA	0.125 ± 0.04
AGGTTGTC	0.074 ± 0.065
CTGGGCCC	-0.364 ± 0.02
CTACGAGC	-0.287 ± 0.073
CCTAGTCG	0.156 ± 0.019
ATATTTTC	-0.17 ± 0.031
AAGGCCTC	-0.105 ± 0.015
ACGCTGTC	0.0556 ± 0.0024
CTGCACAC	0.215 ± 0.027
ACTCAAGA	-0.0123 ± 0.0034
CGATTCGA	0.0278 ± 0.056
CCGCGCAA	0.00579 ± 0.065
ACACTAGT	0.264 ± 0.025
AATGCCCC	-0.365 ± 0.05
AACCTGTG	0.19 ± 0.043
AATTGGGA	-0.0137 ± 0.033

Sequence	PBM E-score of 8-mer
TAACGCTA	0.205 ± 0.037
ATGGCTTG	-0.216 ± 0.086
ATTTACTG	-0.144 ± 0.038
AACAATGT	0.0817 ± 0.041
CACTCTGG	0.0472 ± 0.035
AGCCAATA	-0.262 ± 0.041
GAGAAGGC	0.106 ± 0.026
AAATAGTC	-0.154 ± 0.016
CACTCCCC	-0.022 ± 0.029
CCATGGGG	-0.267 ± 0.028
GGAATCTA	-0.145 ± 0.004
CGAGGTGA	0.4396 ± 0.0012
GACCGCCA	-0.0701 ± 0.085
AACTTGGG	0.0209 ± 0.019
CGTGAGTA	0.136 ± 0.02
AAGCTCGC	0.0764 ± 0.07
CACCACCC	0.163 ± 0.023
ATGATCTC	-0.1239 ± 0.00029
CAACCGCA	-0.192 ± 0.082
CGTACTTA	-0.115 ± 0.042
AGCGCTGG	0.0172 ± 0.042
AACTTCCA	-0.053 ± 0.039
AATCCATT	-0.291 ± 0.033
AGGCCGAT	-0.0621 ± 0.043
GATGCAGC	-0.297 ± 0.019

Sequence	PBM E-score of 8-mer
ATACATCC	0.0559 ± 0.062
CAATTTCC	-0.102 ± 0.0074
CAACTAGG	-0.0699 ± 0.0064
CTCCCTGA	-0.168 ± 0.0082
AAGCTAAC	-0.0267 ± 0.025
ATATTGAG	-0.113 ± 0.079
CCGTCTTC	-0.124 ± 0.0066
AATTGCCT	-0.299 ± 0.034
AGACCCAT	-0.144 ± 0.12
ACGGAGAA	0.00365 ± 0.064
CACCAAAG	0.172 ± 0.033
CTACCTGA	0.00758 ± 0.012
ATGAACCC	-0.139 ± 0.029
CGGGAGCA	0.0899 ± 0.006
CACTTTGC	0.319 ± 0.028
GGTGCAGA	0.168 ± 0.019
GCAGCAAC	-0.037 ± 0.022
TATGTCCA	-0.147 ± 0.024
GAGGGGGC	-0.142 ± 0.027
ATACGCCC	-0.0628 ± 0.0086
CATTACTA	-0.156 ± 0.041
AGGTTCTA	-0.161 ± 0.044
ATCCACGA	-0.238 ± 0.0079
CAAGCAGC	-0.0145 ± 0.0015
ATGTTCAG	-0.0702 ± 0.026

Sequence	PBM E-score of 8-mer
ACAAGAGT	-0.151 ± 0.0067
ATAAGAAG	-0.138 ± 0.045
CACTGTAA	0.161 ± 0.0026
CTGACACA	0.344 ± 0.013
AGCAACAG	0.0636 ± 0.029
CGCGTCTA	0.0754 ± 0.046
GCTCCGGA	-0.18 ± 0.088
ACGGTCTA	-0.195 ± 0.054
TGCTTACA	-0.0251 ± 0.086
ACGTATTG	-0.0903 ± 0.011
GCACGGAC	-0.0346 ± 0.022
AGACCCCA	-0.236 ± 0.0066
ACCGGAGG	0.000975 ± 0.038
ACGGATCG	-0.104 ± 0.011
ATGAGACG	-0.0507 ± 0.02
TGAGCCCA	-0.159 ± 0.019
ACAGAGGA	-0.106 ± 0.13
AGGATCGG	-0.169 ± 0.079
AGACCCGC	0.0457 ± 0.026
GATCAGCA	0.11 ± 0.036
TAAATCAA	-0.136 ± 0.033
CAGTTCGC	0.248 ± 0.008
GAAATCAA	0.0832 ± 0.0069
AATAAAGC	-0.0059 ± 0.09
CATATTGG	0.00571 ± 0.035

Sequence	PBM E-score of 8-mer
CGATAGAA	-0.11 ± 0.029
CTTGGCGC	0.294 ± 0.049
TACCTCTA	-0.0582 ± 0.013
CTCCGAGA	-0.239 ± 0.025
CAGGGAGA	-0.155 ± 0.026
ACGACGGA	-0.0461 ± 0.044
AAGTTGGG	-0.308 ± 0.011
AACTCTGC	0.146 ± 0.075
GGAAACTA	-0.121 ± 0.022
ATTTCGCG	0.4125 ± 0.00097
ATTTCAAC	0.112 ± 0.065
CGAGGCAG	-0.0585 ± 0.057
TCATGCGA	0.121 ± 0.039
ATTCGTTC	-0.0991 ± 0.007
GAAAACTC	-0.187 ± 0.12
ATCTGAGC	-0.102 ± 0.0091
CTGAGATC	-0.0112 ± 0.012
AGAAGGAC	-0.222 ± 0.04
CAGTCTTA	-0.181 ± 0.075
GGCCCGCC	-0.1 ± 0.0086
GTTCATTA	-0.174 ± 0.049
GTTTAGAA	-0.119 ± 0.0041
GAGACCCA	-0.0814 ± 0.019
ACCAGGTG	0.369 ± 0.028
AACTAAGC	-0.276 ± 0.029

Sequence	PBM E-score of 8-mer
GAAAATAA	-0.0661 ± 0.086
CATTGCTC	-0.171 ± 0.039
CCACAGGG	0.0186 ± 0.043
CTGGCGAA	0.00558 ± 0.064
AAGTCGAG	0.139 ± 0.037
AGAAGGTA	-0.2003 ± 0.00059
AGTTGAGC	-0.174 ± 0.045
CGTGGTCC	-0.274 ± 0.016
CCTATGAC	-0.0506 ± 0.12
ATCAGTGA	0.137 ± 0.023
GGAGTTAA	-0.103 ± 0.0049
AAAATGCT	-0.21 ± 0.14
CGATGTCC	-0.273 ± 0.085
CAGGGGTA	-0.3236 ± 0.00049
CGCTAGCG	0.226 ± 0.067
AACCTTGT	-0.137 ± 0.028
ACCACTAG	0.0294 ± 0.1
ACCGTCAT	0.0246 ± 0.048
CGGCCCAG	-0.3 ± 0.013
CCTCGACG	0.0979 ± 0.034
TCTTCCCA	0.114 ± 0.031
AAGATGCT	-0.255 ± 0.015
GCGACAGC	0.257 ± 0.055
AAGAATGA	-0.165 ± 0.067
CCCGTCCG	-0.0884 ± 0.029

Sequence	PBM E-score of 8-mer
CCAATCCA	0.0156 ± 0.023
ACTCCAGC	-0.321 ± 0.02
GACTCCCC	-0.275 ± 0.01
GCGGCGTA	-0.222 ± 0.042
AACCCCAC	-0.18 ± 0.0053
AACCCCAT	0.0259 ± 0.0045
CAAGCACG	-0.00962 ± 0.075
ACATGGCA	-0.0575 ± 0.011
ACATTGTG	0.137 ± 0.056
AAACACGG	-0.0366 ± 0.031
ACGCGAAG	0.18 ± 0.019
AGAGGGGG	-0.146 ± 0.042
ATTAATTA	-0.106 ± 0.11
AGGAGTGA	0.23 ± 0.019
AAACTACC	-0.213 ± 0.0037
CGTTTCGA	-0.0391 ± 0.05
ACGTGGCC	-0.0508 ± 0.0038
CAACCCGA	0.142 ± 0.088
GTAGGAAA	-0.0915 ± 0.041
GCTCCGTA	-0.00898 ± 0.025
ATATATAC	-0.1216 ± 0.00046
AGCTCCCG	-0.141 ± 0.045
